The values below come from paper PMC4594927 (PLoS ONE, 2015).

Molecules are shown by their SMILES.

One assay has as its target T1, BaIMPDH (Bacillus anthracis, UniProt A0A6L8P2U9). Briefly: biochemical. Type of assay: biochemical.
Settings: not given
The compound `C=C(C)c1cccc(C(C)(C)NC(=O)Nc2ccc(Cl)c(C(=O)N(C)C)c2)c1` [P41] came in with a Ki of 37 ± 23 nM.

`C[C@H](Oc1ccccc1Cl)C(=O)Nc1ccc2oc(-c3ccncc3)nc2c1` [Q77] showed a Ki of 130 ± 20 nM.

The assay is the same for the next values; noted with them: read-out: Ki,app BaIMPDH.
Regarding `C=C(C)c1cccc(C(C)(C)NC(=O)Nc2ccc3ccccc3n2)c1` [P54], the Ki came to 400 ± 100 nM.

The target in a further assay is T1, BaIMPDH.
Test: not given
The settings on record: read-out: B. anthracis Ki,app; cited from earlier work.
Take `C[C@H](Nc1cccc(Cl)c1Cl)C(=O)Nc1ccc2oc(-c3ccncc3)nc2c1` [Q67]: the Ki was 5 ± 1 nM.

The assay is the same for the next values; noted with them: read-out: Ki,app BaIMPDH; cited from earlier work.
Regarding `CC(=O)c1cccc(C(C)(C)NC(=O)Nc2ccc(Cl)c(C(F)(F)F)c2)c1` [P80], the Ki is 30 ± 10 nM.

Turning to `C=C(C)c1cccc(C(C)(C)NC(=O)Nc2ccccc2)c1` [P38], the Ki was 570 ± 120 nM.

With `C=C(C)c1cccc(C(C)(C)NC(=O)Nc2ccc(Cl)c(C(=O)NC)c2)c1` [P42], the Ki is 180 ± 90 nM.

As for `C=C(C)c1cccc(C(C)(C)NC(=O)Nc2cnc3ccccc3c2)c1` [P59], the Ki was 490 ± 120 nM.

As for `C=C(C)c1cccc(C(C)(C)NC(=O)Nc2ccc(Cl)c(OC)c2)c1` [P105], the Ki is 40 ± 10 nM.

As for `C=C(C)c1cccc(C(C)(C)NC(=O)Nc2ccc(C(C)(C)C)cc2)c1` [P104], the Ki was greater than 5000 nM.

Turning to `C=C(C)c1cccc(C(C)(C)NC(=O)Nc2cccc3ccccc23)c1` [P17], the Ki is greater than 5000 nM.

As to `CC(=O)c1cccc(C(C)(C)NC(=O)Nc2ccc3cccnc3c2)c1` [P24], the Ki is 30 ± 10 nM.

As for `C=C(C)c1cccc(C(C)(C)NC(=O)Nc2ccc3ncccc3c2)c1` [P55], the Ki was 85 ± 15 nM.

As to `CC(=NO)c1cccc(C(C)(C)NC(=O)Nc2ccc3cccnc3c2)c1` [P27], the Ki is 40 ± 10 nM.

In the case of `CC(=O)c1cccc(C(C)(C)NC(=O)Nc2ccc(Cl)c(C(N)=O)c2)c1` [P25], the Ki is 300 ± 100 nM.

As to `C=C(C)c1cccc(C(C)(C)NC(=O)Nc2cccc(Cl)c2)c1` [P15], the Ki was 215 ± 100 nM.

As to `C=C(C)c1cccc(C(C)(C)NC(=O)Nc2ccc3ccccc3c2)c1` [P14], the Ki was 47 ± 4 nM.

As for `C=C(C)c1cccc(C(C)(C)NC(=O)Nc2ccc(Cl)c(C(N)=O)c2)c1` [P16], the Ki was 70 ± 30 nM.

For `C=C(C)c1cccc(C(C)(C)NC(=O)Nc2ccc(Cl)c(Cl)c2)c1` [P13], the Ki is 36 ± 7 nM.

On to `C=C(C)c1cccc(C(C)(C)NC(=O)Nc2ccccc2Cl)c1` [P39], for which the Ki was greater than 5000 nM.

In the case of `CC(=NO)c1cccc(C(C)(C)NC(=O)Nc2ccc(Cl)c([N+](=O)[O-])c2)c1` [P96], the Ki is 14 ± 1 nM.

For `C=C(C)c1cccc(C(C)(C)NC(=O)Nc2ccc(OC)cc2)c1` [P102], the Ki was 230 ± 20 nM.

On to `CC(=NO)c1cccc(C(C)(C)NC(=O)Nc2ccc(Cl)c(C(F)(F)F)c2)c1` [P82], for which the Ki is 2 ± 0.5 nM.

For `CC(C)c1cccc(C(C)(C)NC(=O)Nc2ccc3ccccc3c2)c1` [P22], the Ki is greater than 5000 nM.

As for `CC(=NO)c1cccc(C(C)(C)NC(=O)Nc2ccc(Cl)cc2)c1` [P37], the Ki is 20 ± 6 nM.

As for `CON=C(C)c1cccc(C(C)(C)NC(=O)Nc2ccc(Cl)c(C(N)=O)c2)c1` [P74], the Ki was 80 ± 20 nM.

The subject of the next assay is B. anthracis.
Test: not given
The settings on record: cited from earlier work.
On to `C=C(C)c1cccc(C(C)(C)NC(=O)Nc2ccc(Cl)c(C(=O)N(C)C)c2)c1` [P41], for which the “B. anthracis MIC” value is 25 µM.

On to `C[C@H](Nc1cccc(Cl)c1Cl)C(=O)Nc1ccc2oc(-c3ccncc3)nc2c1` [Q67], for which the “B. anthracis MIC” value is given as 12 µM.
